# Measured values taken from the supplement of paper PMC10037445.
# “And” between values parts separate entries of the source, which are not always exact repeats. Identical values can stand only once. Over roughly 2,900 compounds, “NF-kB SEAP reporter activity, fold change vs agonist alone” has its median near 0.99; the highest 2% begin near 2.6. This is one part of the list.
# Assays:
# RAW-Dual [1] = assay: NF-kB SEAP reporter activity, fold change vs agonist alone; higher = enhanced NF-kB activity; settings: library stock concentration (final ~1000-fold dilution): 10 mM, cytotoxicity flag (confluency mask): not cytotoxic
# Method in brief: (§1)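 RAW-Dual macrophages were seeded in DMEM at 50,000 cells/well in 384-well plates, given 50 nL of library stock by pin tool, and given a PRR agonist 1 h later. Plates were held at 37 °C, 5% CO2 for 20 hours, after which supernatant was read for IRF by QuantiLuc luminescence and for NF-κB by QuantiBlue absorbance at 620 nm. Reporter activity is expressed as fold change over wells that received agonist alone. A well was called cytotoxic when IncuCyte confluency fell below 70% of agonist controls in both mask sets.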
# RAW-Dual [2] = assay: NF-kB SEAP reporter activity, fold change vs agonist alone; cytotoxicity flag (confluency mask): not cytotoxic; higher = enhanced NF-kB activity
# Method in brief: as §1
# [3] = agonist: ODN 1826 (TLR9) 0.5 ug/mL
# [4] = agonist: Pam2CSK4 (TLR2/6) 0.1 ug/mL
# [5] = agonist: Pam3CSK4 (TLR2/1) 0.1 ug/mL
smiles,measurement,setting,value
O=C(N/N=C/c1cc(O)c(O)cc1O)c1cc2ccccc2cc1O,NF-kB SEAP reporter activity,RAW-Dual [1]; agonist: Imiquimod (TLR7) […],1.13
same,NF-kB SEAP reporter activity,RAW-Dual [1]; agonist: MPLA (TLR4) […],1.2
O=C(N/N=C/c1cc(O)c(O)cc1O)c1cc2ccccc2cc1O (library stock concentration (final ~1000-fold dilution): 10 mM),NF-kB SEAP reporter activity,RAW-Dual [2]; agonist: LPS (TLR4) 0.1 ug/mL,1.68
same,NF-kB SEAP reporter activity,RAW-Dual [2]; [3],1
same,NF-kB SEAP reporter activity,RAW-Dual [2]; [4],1.04
same,NF-kB SEAP reporter activity,RAW-Dual [2]; [5],0.872
CC(C)(C)C(=O)Oc1ccc(S(=O)(=O)Nc2ccccc2C(=O)NCC(=O)O)cc1 (library stock concentration (final ~1000-fold dilution): 10 mM),NF-kB SEAP reporter activity,RAW-Dual [2]; agonist: LPS (TLR4) 0.1 ug/mL,1.36 and 1.08
same,NF-kB SEAP reporter activity,RAW-Dual [2]; [3],0.906 and 0.939
same,NF-kB SEAP reporter activity,RAW-Dual [2]; [4],1.39 and 1
same,NF-kB SEAP reporter activity,RAW-Dual [2]; [5],0.652 and 1.02
CC(C)(C)C(=O)Oc1ccc(S(=O)(=O)Nc2ccccc2C(=O)NCC(=O)O)cc1,NF-kB SEAP reporter activity,RAW-Dual [1]; agonist: Imiquimod (TLR7) […],0.966
N=C(N)Nc1nc(CSCCC(=N)NS(N)(=O)=O)cs1 (library stock concentration (final ~1000-fold dilution): 10 mM),NF-kB SEAP reporter activity,RAW-Dual [2]; agonist: LPS (TLR4) 0.1 ug/mL,1.03
same,NF-kB SEAP reporter activity,RAW-Dual [2]; [3],1.06
same,NF-kB SEAP reporter activity,RAW-Dual [2]; [4],1.25
same,NF-kB SEAP reporter activity,RAW-Dual [2]; [5],1.09
N=C(N)Nc1nc(CSCCC(=N)NS(N)(=O)=O)cs1,NF-kB SEAP reporter activity,RAW-Dual [1]; agonist: Imiquimod (TLR7) […],0.918
same,NF-kB SEAP reporter activity,RAW-Dual [1]; agonist: MPLA (TLR4) […],1
COc1cc(O)c2c(c1)oc(=O)c1c3cc(O)c(O)cc3oc21 (library stock concentration (final ~1000-fold dilution): 10 mM),NF-kB SEAP reporter activity,RAW-Dual [2]; agonist: LPS (TLR4) 0.1 ug/mL,0.879
same,NF-kB SEAP reporter activity,RAW-Dual [2]; [3],0.742
same,NF-kB SEAP reporter activity,RAW-Dual [2]; [4],0.672
same,NF-kB SEAP reporter activity,RAW-Dual [2]; [5],0.484
COc1cc(O)c2c(c1)oc(=O)c1c3cc(O)c(O)cc3oc21,NF-kB SEAP reporter activity,RAW-Dual [1]; agonist: Imiquimod (TLR7) […],0.951
same,NF-kB SEAP reporter activity,RAW-Dual [1]; agonist: MPLA (TLR4) […],0.994
Cc1cc(C(N)=O)ccc1-n1c(CCC(=O)O)ccc1-c1ccc(-n2ccnc2)cc1 (library stock concentration (final ~1000-fold dilution): 10 mM),NF-kB SEAP reporter activity,RAW-Dual [2]; agonist: LPS (TLR4) 0.1 ug/mL,0.734
same,NF-kB SEAP reporter activity,RAW-Dual [2]; [3],0.995
same,NF-kB SEAP reporter activity,RAW-Dual [2]; [4],1.14
same,NF-kB SEAP reporter activity,RAW-Dual [2]; [5],0.822
Cc1cc(C(N)=O)ccc1-n1c(CCC(=O)O)ccc1-c1ccc(-n2ccnc2)cc1,NF-kB SEAP reporter activity,RAW-Dual [1]; agonist: Imiquimod (TLR7) […],0.956
same,NF-kB SEAP reporter activity,RAW-Dual [1]; agonist: MPLA (TLR4) […],1.01
O=C(/C=C/c1ccc2ccccc2n1)c1ccncc1 (library stock concentration (final ~1000-fold dilution): 10 mM),NF-kB SEAP reporter activity,RAW-Dual [2]; agonist: LPS (TLR4) 0.1 ug/mL,0.306
same,NF-kB SEAP reporter activity,RAW-Dual [2]; [3],0.525
same,NF-kB SEAP reporter activity,RAW-Dual [2]; [4],0.287
same,NF-kB SEAP reporter activity,RAW-Dual [2]; [5],0.331
O=C(/C=C/c1ccc2ccccc2n1)c1ccncc1,NF-kB SEAP reporter activity,RAW-Dual [1]; agonist: Imiquimod (TLR7) […],0.526
same,NF-kB SEAP reporter activity,RAW-Dual [1]; agonist: MPLA (TLR4) […],0.344
